{"source": "paper PMC6212790", "note": "The other results are listed elsewhere or left out. At the low end of the ranking the order means little."}
{"target": "T1, GST-Rok-C97-191 (UniProt O34857)", "T1 sequence": "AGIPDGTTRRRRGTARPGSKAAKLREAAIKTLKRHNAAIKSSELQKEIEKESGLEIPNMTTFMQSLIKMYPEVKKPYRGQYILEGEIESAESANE", "assay": "protein binding microarray;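 also: rank score from −0.5 (least bound) to 0.5 (best bound)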", "conditions": "Rok is a gene silencer of Bacillus subtilis; high values mean tight binding; most listed sequences are background and not binding sites; double strand, one strand shown", "units": {"binding signal": "E-score"}}
{"sequence": "CAATCAGG", "binding signal": 0.0702}
{"sequence": "ACCCAGTG", "binding signal": -0.0503}
{"sequence": "CGAAGCCC", "binding signal": -0.324}
{"sequence": "ATTAATCA", "binding signal": 0.117}
{"sequence": "AGAGGAAG", "binding signal": 0.0787}
{"sequence": "CTTCGCCC", "binding signal": -0.236}
{"sequence": "CATAGCGG", "binding signal": -0.134}
{"sequence": "CCGTAATA", "binding signal": 0.288}
{"sequence": "AGGCCAGG", "binding signal": -0.349}
{"sequence": "AAAGCGTC", "binding signal": -0.227}
{"sequence": "GAGGGGCC", "binding signal": -0.361}
{"sequence": "GGTAGTTA", "binding signal": 0.4}
{"sequence": "GCTGGACA", "binding signal": -0.106}
{"sequence": "GTCCCCAA", "binding signal": -0.141}
{"sequence": "ACCGCATG", "binding signal": -0.238}
{"sequence": "AGGTTGAA", "binding signal": -0.194}
{"sequence": "CCGCCGGA", "binding signal": -0.149}
{"sequence": "AGAGCTGG", "binding signal": -0.0865}
{"sequence": "CCTCGAGG", "binding signal": -0.328}
{"sequence": "GGAGTGCA", "binding signal": -0.188}
{"sequence": "AATATGCC", "binding signal": 0.0302}
{"sequence": "CGATCAAG", "binding signal": -0.0651}
{"sequence": "CATCTGGG", "binding signal": -0.161}
{"sequence": "GCCCAGTA", "binding signal": -0.0203}
{"sequence": "GCAGATGC", "binding signal": -0.143}
{"sequence": "AGTTATGC", "binding signal": 0.181}
{"sequence": "CATAGGAA", "binding signal": 0.23}
{"sequence": "CACACGCA", "binding signal": -0.0664}
{"sequence": "ACGGCTTA", "binding signal": -0.144}
{"sequence": "CTGAGTCA", "binding signal": -0.156}
{"sequence": "AGCTTCAT", "binding signal": -0.0213}
{"sequence": "ATTCGAGC", "binding signal": -0.0851}
{"sequence": "TCTAGAAA", "binding signal": 0.205}
{"sequence": "CCCCAAAG", "binding signal": -0.232}
{"sequence": "ATCGAAAC", "binding signal": 0.0725}
{"sequence": "GATCGGAA", "binding signal": -0.00676}
{"sequence": "GGTGCTAC", "binding signal": 0.0695}
{"sequence": "CCGCAGCA", "binding signal": -0.182}
{"sequence": "AGACATAC", "binding signal": -0.000506}
{"sequence": "ACCCCTCG", "binding signal": -0.0886}
{"sequence": "TCTCTTAA", "binding signal": -0.00713}
{"sequence": "CAGCGGCG", "binding signal": -0.248}
{"sequence": "CTCGTTAA", "binding signal": -0.085}
{"sequence": "GGGGCCGA", "binding signal": -0.294}
{"sequence": "ATGTGTTA", "binding signal": 0.0836}
{"sequence": "CCTTAGAG", "binding signal": -0.374}
{"sequence": "CGTAGTTA", "binding signal": 0.199}
{"sequence": "ATCTGTCG", "binding signal": -0.0608}
{"sequence": "CGGTAGCC", "binding signal": -0.199}
{"sequence": "TTATTGAA", "binding signal": -0.0933}
{"sequence": "GTGTGATA", "binding signal": -0.0282}
{"sequence": "TACAAACA", "binding signal": 0.304}
{"sequence": "CCAGGTCG", "binding signal": -0.156}
{"sequence": "CAAGGGTA", "binding signal": -0.105}
{"sequence": "AGACTCTA", "binding signal": 0.092}
{"sequence": "CAGCAAGA", "binding signal": 0.159}
{"sequence": "AGCGAAAG", "binding signal": -0.141}
{"sequence": "ATACGCAT", "binding signal": -0.0703}
{"sequence": "ACTTGACG", "binding signal": -0.134}
{"sequence": "AAAAGGTG", "binding signal": -0.0845}
{"sequence": "GGGAATAC", "binding signal": 0.143}
{"sequence": "GCATCGGA", "binding signal": -0.0812}
{"sequence": "CGGGCTCC", "binding signal": -0.292}
{"sequence": "GCGTGTCC", "binding signal": -0.0889}
{"sequence": "CCTTGCCG", "binding signal": -0.199}
{"sequence": "GCTTGACC", "binding signal": -0.252}
{"sequence": "TCCCGGAA", "binding signal": -0.143}
{"sequence": "AAGCATAA", "binding signal": 0.0741}
{"sequence": "GCAGCAGA", "binding signal": -0.091}
{"sequence": "CCAATGCC", "binding signal": -0.224}
{"sequence": "AACTGGGG", "binding signal": -0.231}
{"sequence": "GCATGGAC", "binding signal": -0.00639}
{"sequence": "AAATCTAC", "binding signal": 0.441}
{"sequence": "TGTAAACA", "binding signal": 0.079}
{"sequence": "ATAATGAG", "binding signal": 0.217}
{"sequence": "CGAAACGA", "binding signal": -0.0558}
{"sequence": "GTGTGACA", "binding signal": -0.0947}
{"sequence": "CCTGACGC", "binding signal": -0.212}
{"sequence": "AATTTGTG", "binding signal": 0.138}
{"sequence": "TGATGCCA", "binding signal": -0.299}
{"sequence": "ACTGTAAT", "binding signal": 0.258}
{"sequence": "GGAATCAC", "binding signal": -0.0168}
{"sequence": "AGAGACTG", "binding signal": 0.0621}
{"sequence": "ACCCGGAA", "binding signal": 0.0679}
{"sequence": "CTAGCAAG", "binding signal": 0.221}
{"sequence": "AAATCCCC", "binding signal": -0.178}
{"sequence": "CTGGCGCC", "binding signal": -0.249}
{"sequence": "TCCGACGA", "binding signal": -0.0595}
{"sequence": "ATTGAATG", "binding signal": 0.052}
{"sequence": "CGGGATAC", "binding signal": -0.0205}
{"sequence": "CCGTTGGC", "binding signal": -0.314}
{"sequence": "GCGGAGTA", "binding signal": -0.217}
{"sequence": "AGCTCTTA", "binding signal": 0.106}
{"sequence": "AGAAGATC", "binding signal": 0.0464}
{"sequence": "GGTATCAA", "binding signal": 0.122}
{"sequence": "CAAAGTGC", "binding signal": -0.0301}
{"sequence": "ACCATGTG", "binding signal": -0.125}
{"sequence": "CCAATTGC", "binding signal": 0.1}
{"sequence": "ACTGAGGC", "binding signal": -0.204}
{"sequence": "ATAACCAG", "binding signal": -0.00227}
{"sequence": "GAACATGC", "binding signal": 0.00746}
{"sequence": "CGCTCTTA", "binding signal": -0.0173}
{"sequence": "CCCCCTGC", "binding signal": -0.394}
{"sequence": "ATGCGCAA", "binding signal": 0.00657}
{"sequence": "CGAGAGGA", "binding signal": -0.153}
{"sequence": "TGCATGAA", "binding signal": 0.0171}
{"sequence": "AAGACGAG", "binding signal": -0.185}
{"sequence": "TCCCGCAA", "binding signal": -0.212}
{"sequence": "GTATTCTA", "binding signal": 0.232}
{"sequence": "CGTTGCTA", "binding signal": 0.21}
{"sequence": "CAGCTCAA", "binding signal": 0.0893}
{"sequence": "TAACCCCA", "binding signal": -0.153}
{"sequence": "ATGTGCAC", "binding signal": -0.0271}
{"sequence": "GTGCCTAA", "binding signal": -0.216}
{"sequence": "AAACTGCG", "binding signal": -0.095}
{"sequence": "AGTCAGCA", "binding signal": -0.0559}
{"sequence": "ATTATCTA", "binding signal": 0.385}
{"sequence": "GAAGTTGA", "binding signal": 0.00777}
{"sequence": "ACCTCAAC", "binding signal": -0.118}
{"sequence": "AGAGCGAA", "binding signal": -0.138}
{"sequence": "ATTTTTAG", "binding signal": 0.209}
{"sequence": "CCCATATC", "binding signal": -0.0677}
{"sequence": "ATGAGTAA", "binding signal": -0.0104}
{"sequence": "CCGACGTC", "binding signal": -0.153}
{"sequence": "ATGACAGA", "binding signal": -0.112}
{"sequence": "AGTAACCC", "binding signal": -0.223}
{"sequence": "CCTTGTCA", "binding signal": -0.206}
{"sequence": "CAATGGCA", "binding signal": -0.0671}
{"sequence": "ATATTAAA", "binding signal": 0.385}
{"sequence": "CGCGTAGC", "binding signal": -0.159}
{"sequence": "ATTTGCGG", "binding signal": 0.0151}
{"sequence": "CCCCCACC", "binding signal": -0.384}
{"sequence": "AGTTAAAT", "binding signal": 0.335}
{"sequence": "CCGAAAGG", "binding signal": -0.103}
{"sequence": "ATCGAACC", "binding signal": 0.0073}
{"sequence": "CTAATTGC", "binding signal": 0.163}
{"sequence": "GTGTCGTA", "binding signal": 0.0443}
{"sequence": "TATGGTAA", "binding signal": 0.184}
{"sequence": "GAGACGTA", "binding signal": -0.153}
{"sequence": "CCTTGGCC", "binding signal": -0.25}
{"sequence": "TAAGGGTA", "binding signal": 0.126}
{"sequence": "ACAATTAG", "binding signal": 0.197}
{"sequence": "GACTGACA", "binding signal": -0.149}
{"sequence": "AGACTGAA", "binding signal": 0.00792}
{"sequence": "CGCGGCCC", "binding signal": -0.439}
{"sequence": "AACGCAAG", "binding signal": -0.0204}
{"sequence": "GTCCCGCA", "binding signal": -0.222}
{"sequence": "ATTCACAG", "binding signal": 0.107}
{"sequence": "CTAAGAGC", "binding signal": -0.156}
{"sequence": "AGACGCTG", "binding signal": -0.178}
{"sequence": "GTTCCCTA", "binding signal": -0.125}
{"sequence": "AGTGGTGC", "binding signal": -0.189}
{"sequence": "CGGTATCA", "binding signal": 0.137}
{"sequence": "CCGCCGCC", "binding signal": -0.275}
{"sequence": "AGTTTTCG", "binding signal": 0.0225}
{"sequence": "GATTCGAC", "binding signal": 0.0186}
{"sequence": "CAATTGCA", "binding signal": -0.126}
{"sequence": "CATGTGGC", "binding signal": -0.0798}
{"sequence": "GGAGGGCC", "binding signal": -0.396}
{"sequence": "TAGCGGCA", "binding signal": 0.187}
{"sequence": "AAGATGAT", "binding signal": -0.0553}
{"sequence": "AACGGCGC", "binding signal": -0.0687}
{"sequence": "ACGCACGT", "binding signal": -0.231}
{"sequence": "ACAATGTG", "binding signal": 0.275}
{"sequence": "CCTATCGC", "binding signal": -0.107}
{"sequence": "CACGAAGG", "binding signal": -0.127}
{"sequence": "ATTGTAGC", "binding signal": 0.172}
{"sequence": "CACAATCG", "binding signal": -0.043}
{"sequence": "AAGTCTCG", "binding signal": -0.0775}
{"sequence": "CAAATGGC", "binding signal": 0.0931}
{"sequence": "ACTTCTAC", "binding signal": 0.231}
{"sequence": "CCTGGTCG", "binding signal": -0.164}
